We go through 167 variants from the RNAGym collection of RNA variant scans (doi:10.1073/pnas.2313332121).

B1: TPR 5TU (parent)
chain: GGAUCUUCUCGAUCUAACAAAAAAGACAAAUCUGCCACAAAGCUUGAGAGCAUCUUCGGAUGCAGAGGCGGCAGCCUUCGGUGGCGCGAUAGCGCCAACGUUCUCAACUAUGACACGCAAAACGCGUGCUCCGUUGAAUGGAGUUUAUCAUG

Variants at the floor of the assay are shown more often than the library holds them. Where only a bound is given, the exact number is not on record here.

This data set covers variants of B1. The data set can be described thus: polymerase ribozyme fitness, log enrichment relative to wild type (log ratio); higher = more active; in vitro selection for triplet polymerase activity. In short, it runs like this:
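In triplicate, a single round of in vitro selection was run on each mutant library, PCR-built and transcribed, covering one subunit of a heterodimeric triplet polymerase ribozyme. Frozen incubation at −7 °C followed annealing with a biotinylated primer, partner subunit and triplets, and extended constructs were then gel-excised, streptavidin-captured and taken through RT-PCR. Fitness is the logarithm of genotype enrichment over wild-type enrichment, from inverse-variance-weighted replicate averages of Illumina-sequenced inputs and outputs. […] only genotypes with ≥10 input reads and ≥1 read per output were kept.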
As for A91G C149G, the “polymerase ribozyme fitness (log ratio)” value is at most -4.2.
Then C93G A142C, with -4.02; and A91U G143U, with at most -4.2.
As for G88C U148G, the figure is at most -4.2.
In the case of U90A G92C A142G, the “polymerase ribozyme fitness (log ratio)” value was at most -4.2.
As for G92U A110U U146G, the figure is at most -4.2.
As for G100U U101G, the figure is -3.34; as for C93U C95U C149A, at most -4.2.
As for C96G G100U, the figure is -3.95; as for C108U G133C A138U G140U, at most -4.2.
Take C103A A122G U148A: the “polymerase ribozyme fitness (log ratio)” value was at most -4.2.
Then C96U C125A G128A U134A A142U, with at most -4.2; and A91G C95U A107G, with at most -4.2; and U90C C99G U101G C118A, with at most -4.2.
For A91G A138C G140A, the “polymerase ribozyme fitness (log ratio)” value was at most -4.2.
As for G88A A110G, the figure is at most -4.2; as for G94C C105A, -1.22; as for C93G C131G U139G, at most -4.2.
As for G88U U111G C123U, the figure is at most -4.2; as for C93G A115G G141A U148C A150G, at most -4.2; as for A89G C93A U102A A121U C131G G143A, at most -4.2.
On to G92U G124C U139A, for which the “polymerase ribozyme fitness (log ratio)” value is at most -4.2.
As for C93U U135A, the figure is -2.01; as for G88A U90C A137G, at most -4.2; as for C93A A107U A110G C114U U127G, at most -4.2.
Then C96U A97C, with 0.0607.
In the case of A91C A142C, the “polymerase ribozyme fitness (log ratio)” value is at most -4.2.
As for C93U G136C, the figure is -4.02.
Then G88C A91U A110U, with at most -4.2; and C93A G124C U127C G133C U135A U148G, with at most -4.2; and C93U G94U, with -1.43.
As for G88A A120U C125G G126A G136U A142C, the figure is at most -4.2; as for A107G C118A, at most -4.2.
Regarding C93A C116U, the “polymerase ribozyme fitness (log ratio)” value was -1.88.
Then G94A C96G U148A, with at most -4.2.
C93A C125U G133C C149G: the “polymerase ribozyme fitness (log ratio)” value is at most -4.2.
Then U104G G141U, with 0.973; and G88A G100A C125A C131G, with at most -4.2; and A91G U144G, with -2.02.
As for U102C G136A, the figure is -0.705.
For the variant G88A A113G U127G G143C, the “polymerase ribozyme fitness (log ratio)” value was at most -4.2.
Then C96A U135G U144G, with at most -4.2; and A106G C114U U127G G133C A138C U145G, with at most -4.2.
Then G94A C108A A137C, with at most -4.2; and A89U A137C U151G, with at most -4.2.
As for A98G C132G G136C, the figure is -4.12; as for A89U C93G, -3.68.
On to C87G G88U U90G, for which the “polymerase ribozyme fitness (log ratio)” value was at most -4.2.
As for A91U C108U A113U C118U C149G, the figure is at most -4.2; as for A110C G112A G140C A142U, -4.12.
On to A91U A98U G117U A137C C149G, for which the “polymerase ribozyme fitness (log ratio)” value is at most -4.2.
Then C103G C108A, with at most -4.2.
As for C93A U127A G133U G140U, the figure is at most -4.2; as for G94C C108G, at most -4.2.
As for G88A G94A C99G C103G U104A A107G, the figure is at most -4.2.
As to A89C C93A C99U, the “polymerase ribozyme fitness (log ratio)” value is at most -4.2.
As for A89U A91U G136C U139A A142U G152A, the figure is at most -4.2; as for A91U C93A, at most -4.2; as for A89U U102G A122C, -3.7.
As for A110G A113G A137C, the figure is at most -4.2; as for G88C A137C, at most -4.2; as for A91C C108U A113C C118G U130C, at most -4.2.
As for G88U C99A, the figure is -4.1; as for A89C G94C, -1.57.
As to G92U C95A A115G A147C, the “polymerase ribozyme fitness (log ratio)” value was at most -4.2.
As for A91U A119U G133C C149A, the figure is at most -4.2; as for C99U U111G, at most -4.2; as for C96U A110U, -3.6.
Then C95U U102C, with -1.06.
As for C93A A142C, the figure is -1.78; as for C95U U101G C105U C125U A142U, at most -4.2.
For G94C A97U C103A C125U U139A, the “polymerase ribozyme fitness (log ratio)” value was at most -4.2.
With C93U U104A C105U A119U, the “polymerase ribozyme fitness (log ratio)” value was at most -4.2.
As for C87U C118G, the figure is -1.33.
With A91U C95G C99A G152U, the “polymerase ribozyme fitness (log ratio)” value is at most -4.2.
As for G100A G124C, the figure is at most -4.2.
As for C93U C149U, the figure is -1.57; as for G88C A115U G117U C131G U135G, at most -4.2; as for C87A G117A G133A, at most -4.2.
As for U102G A110C, the figure is at most -4.2; as for C96U G112C U135G G140A G141U, at most -4.2.
With C87U C116A, the “polymerase ribozyme fitness (log ratio)” value is 1.21.
As for U101G A115U G117U A150C, the “polymerase ribozyme fitness (log ratio)” value is at most -4.2.
Then A89G C105A A106G C132U A142U, with at most -4.2.
Then G88A G140A, with at most -4.2.
Then G88A G140U, with at most -4.2.
With U102G A150C, the “polymerase ribozyme fitness (log ratio)” value was at most -4.2.
Then U109G A142C, with -2.18; and G94C A106C G136U U148C, with at most -4.2.
As for A89U A91U, the figure is at most -4.2.
Then G92U C108U C125G G140C, with at most -4.2; and A89C G140C, with at most -4.2.
As for C95U A98C, the “polymerase ribozyme fitness (log ratio)” value is -1.
Turning to C87G G100U A120C U135G G136U, the “polymerase ribozyme fitness (log ratio)” value was at most -4.2.
As for A91U G141A, the figure is -4.05.
As for C93A U101G U139C G141C, the figure is -3.88; as for C95U C116A C129G U148G, at most -4.2; as for A91G G112C, -3.76.
Then C108G U109A C118U G143A U146G, with at most -4.2; and A89C C125A, with -1.13.
Regarding U111C A119U U139G U151G, the “polymerase ribozyme fitness (log ratio)” value is at most -4.2.
As for C96G A138U, the figure is at most -4.2.
As for A91G A121U, the figure is -3.01; as for C87U A97U, -2.25.
For G88A C118U, the “polymerase ribozyme fitness (log ratio)” value was at most -4.2.
Turning to C87G C116A, the “polymerase ribozyme fitness (log ratio)” value was at most -4.2.
For C95U C114U, the “polymerase ribozyme fitness (log ratio)” value is -1.72.
On to C96A A138U, for which the “polymerase ribozyme fitness (log ratio)” value is at most -4.2.
Then C93U C95U U102A A106G, with -2.87; and C87U U90C C99G, with -3.53; and C108U A142C, with -3.43.
For C96U G143C, the “polymerase ribozyme fitness (log ratio)” value was -3.12.
Then A97G C131G, with -3.21; and C99G C114U, with -2.38; and C99A C108G U145C, with at most -4.2.
As for C87G G92A A119G, the figure is at most -4.2; as for G88C A110U, at most -4.2.
Then U90G G126U A147U, with -3.95; and U90C C99U, with at most -4.2; and A91G G100C, with at most -4.2.
Turning to C87G C149U, the “polymerase ribozyme fitness (log ratio)” value was at most -4.2.
For C87U C114G, the “polymerase ribozyme fitness (log ratio)” value was -2.79.
As for C87U C103U, the figure is -0.658.
As for C93G G140C G143U G152U, the figure is at most -4.2; as for G94C A120U U139A, at most -4.2; as for G94A U146G, -1.25.
As for C87A C149A, the figure is at most -4.2; as for C93U A97C, -0.557.
Consider C95U A107G, for which the “polymerase ribozyme fitness (log ratio)” value was -4.16.
As for G92U G112C, the figure is -2.95.
As for C93A A97U G128A, the figure is at most -4.2; as for G88U C125U A137C, at most -4.2.
As for U111G, the figure is -4.05; as for U111C, -1.77.
For U111A, the “polymerase ribozyme fitness (log ratio)” value was -3.05.
As for A110G, the “polymerase ribozyme fitness (log ratio)” value is -2.42.
As for A110U, the figure is -3.57.
As for A110C, the figure is at most -4.2; as for C95G C96G, -2.17.
Then C87G C99A C114U C125G, with at most -4.2; and G92U C123A, with -0.758.
Take G92A A113G G128C G141A: the “polymerase ribozyme fitness (log ratio)” value is at most -4.2.
On to A97U U151G, for which the “polymerase ribozyme fitness (log ratio)” value is at most -4.2.
As for C93A G141A A142G, the figure is at most -4.2; as for G94U U104C C129U U134A, at most -4.2; as for G94A C114U, -1.93.
Then C95U A113G C149G, with at most -4.2.
Then C93U G117C C125A, with -0.271; and U109A G141A A142U, with at most -4.2; and C103G U148C, with at most -4.2.
Consider C96A U144A, for which the “polymerase ribozyme fitness (log ratio)” value is -0.177.
Then G94C C116U, with -0.0318; and A89G C131A, with -2.5.
Then G92C U102A G133C A150G, with at most -4.2; and C99G A121C U151A, with at most -4.2; and A91C G92A A107U G136U A147U, with at most -4.2.
Then A98G G100U U102G U148A, with at most -4.2; and C96A G117U A138U, with at most -4.2.
With G92A U148C, the “polymerase ribozyme fitness (log ratio)” value was -4.02.
On to C96U G100U, for which the “polymerase ribozyme fitness (log ratio)” value is -3.13.
Regarding A91U A106C C125G G141A U151G, the “polymerase ribozyme fitness (log ratio)” value is at most -4.2.
As for A91U A110U, the figure is at most -4.2; as for A89C U130A, -3.07; as for G94C U101C, -0.185.
With A98G G128A, the “polymerase ribozyme fitness (log ratio)” value is -3.02.
Then G94C C131U, with -1.79; and A89U U127C G136C A137C, with -4.13.
